In all, about 360,000 compounds went through this assay and about 11,000 (3.1%) were called active. The shares of active, inactive and inconclusive entries below differ from those in the screen. Calls follow the shape of the dose curve; as a rule, active = well fitted inhibition curve with a large enough effect; inconclusive = small, poorly fitted or top-dose-only effect; inactive = no such curve, though single readings can be large or run the other way. No potency is given beside an inconclusive call; the fits are too rough.
These compounds were tested against Schistosoma mansoni thioredoxin glutathione reductase (TGR) (UniProt Q962Y6) (assay: qHTS Assay for the Inhibitors of Schistosoma Mansoni Peroxiredoxins). Settings: purified TGR, DTNB reduction, TNB absorbance 405 nm; series mostly up to 114 µM.
Procedure, shortened: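 First, TGR (20 nM dispensed) and NADPH were mixed with compound. Second, a 15 min room-temperature incubation followed. Third, further NADPH and then DTNB were added to start the reaction. Finally, TNB absorbance was monitored kinetically.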
Also: nearly all actives have a fitted effect of over 60% in size.
Potency is read from the fitted curve at half-maximal effect; tags tell the direction and shape of the fitted curve.

Q: How did the Potency turn out when `O=C(O)c1ccc(Nc2ccc([N+](=O)[O-])c3nonc23)cc1` was run?
A: inconclusive [inhibitor, partial curve]

Q: `OCCCNC(=S)Nc1ccc(Br)cc1Cl` was tested. Which Potency did it give?
A: active: 3.16 µM

Q: For `O=C(c1ccc2nc(-c3ccco3)c(-c3ccco3)nc2c1)N1CCC2(CC1)OCCO2`, which Potency is on record?
A: active: 1.58 µM

Q: With `CCNc1nc(Oc2ccc(C(=O)OC)cc2)nc(N(C)C)n1` as the compound, how does the Potency read?
A: inactive

Q: For `O=C1c2cccnc2C(=O)N1CO`, which Potency is on record?
A: inconclusive [inhibitor, full curve, poor fit]

Q: Which Potency does the source give for `CC(C)(C)n1ncc2c(=O)n(CC(=O)N3CCCc4ccccc43)cnc21` here?
A: inconclusive [inhibitor, full curve, poor fit]

Q: Which Potency does the source give for `COc1cccc(N2C(=O)/C(=C/c3ccc(C)o3)C(=O)NC2=S)c1` here?
A: active: 1.78 µM

Q: Which Potency does the source give for `Cn1c(=O)n(C)c2cc(NC(=O)CCl)ccc21` here?
A: active: 17.8 µM

Q: With `Cc1ccc(S(=O)(=O)N2CCCCC2C(=O)NCc2ccco2)cc1` (centres undefined) as the compound, how does the Potency read?
A: active: 20 µM

Q: For `Cc1cccn2c(=O)c3cc(C(=O)NC4CCCC4)c(=N)n(CCCN4CCOCC4)c3nc12`, which Potency is on record?
A: inactive

Q: For `Cc1cc2c(=O)n(CC(=O)NCC(=O)N3CCN(Cc4ccccc4)CC3)cnc2s1`, which Potency is on record?
A: inconclusive [inhibitor, partial curve]

Q: `O=c1oc2ccccc2nc1/C=C(O)/C=C/c1ccc(F)cc1` was tested. Which Potency did it give?
A: inconclusive [inhibitor, partial curve]

Q: `CC(C)C(=O)Nc1cccc(C(=O)NCc2ccc(S(N)(=O)=O)cc2)c1` was tested. Which Potency did it give?
A: inactive

Q: With `O=C(NCCN1C(=O)C2C3C=CC(C3)C2C1=O)Nc1ccccc1` (centres undefined) as the compound, how does the Potency read?
A: inconclusive [inhibitor, single point]

Q: For `CCc1cc2cc3c(cc2nc1SCC(=O)N1CCN(C(=O)c2ccco2)CC1)OCO3`, which Potency is on record?
A: inactive

Q: How did the Potency turn out when `O=C(Nc1cccc(Cl)c1)OCc1cnc(Cl)s1` was run?
A: inactive

Q: With `CN(C=C1C(=O)CC(C)(C)CC1=O)CCN1CCNCC1` as the compound, how does the Potency read?
A: active: 22.4 µM

Q: Which Potency does the source give for `CCn1ncc([C@@H]2C[C@H]3CN(Cc4cccc(Cl)c4)C(=O)[C@]34CCCN24)c1C` here?
A: inactive

Q: With `CCc1[nH]c(=O)c(C#N)c2c1CSC(C)(C)C2` as the compound, how does the Potency read?
A: inconclusive [inhibitor, full curve]

Q: With `COc1ccc(CN2COc3ccc4c(-c5ccc(OC)cc5)cc(=O)oc4c3C2)cc1` as the compound, how does the Potency read?
A: inconclusive [inhibitor, single point]

Q: With `COc1cc(NC(=S)Nc2ccc(N(C)C(C)=O)cc2)cc(OC)c1` as the compound, how does the Potency read?
A: inconclusive [inhibitor, full curve]

Q: With `COc1ccc(C2=NN(C(=O)CCC(=O)O)C(c3ccc([N+](=O)[O-])cc3)C2)cc1` (centres undefined) as the compound, how does the Potency read?
A: inactive

Q: Which Potency does the source give for `COc1cc2c(cc1OC)C1(CCCC1)CNC2c1cccc([N+](=O)[O-])c1` (centres undefined) here?
A: inconclusive [inhibitor, single point]

Q: With `O=C(NC(=S)NC1CCCC1)c1ccccc1` as the compound, how does the Potency read?
A: inconclusive [inhibitor, full curve]

Q: With `O=C(Nc1nnc(COc2ccc(Cl)cc2)s1)c1cccs1` as the compound, how does the Potency read?
A: inactive

Q: With `O=C(N/N=C/c1ccc(-c2ccccc2C(=O)O)o1)c1cccs1` as the compound, how does the Potency read?
A: inconclusive [inhibitor, partial curve]

Q: With `O=C(NCCC(=O)N1CCN(c2ccccc2O)CC1)c1ccc(Br)cc1` as the compound, how does the Potency read?
A: inactive

Q: With `CCOc1ccc(CCNC(=O)c2cnc3sc(N4CCOCC4)nn3c2=O)cc1` as the compound, how does the Potency read?
A: inconclusive [inhibitor, single point]

Q: For `CCOC(=O)c1cc(C(=O)OCC)cc(-n2c(C)cc(C(=O)CN3CCOCC3)c2C)c1`, which Potency is on record?
A: inconclusive [inhibitor, partial curve]

Q: With `Cc1cc(N)ccc1-n1c(C)ccc1C` as the compound, how does the Potency read?
A: inconclusive [inhibitor, partial curve, poor fit]

Q: Which Potency does the source give for `Cc1ccc(NC(=O)C(=O)c2ccc(C)cc2)cc1` here?
A: inactive

Q: `CC(=O)c1cn(CC(=O)Nc2ccccc2C(F)(F)F)c2ccccc12` was tested. Which Potency did it give?
A: inactive

Q: With `C/C=C/c1ccc(OCCCNC)c(OC)c1` as the compound, how does the Potency read?
A: inconclusive [inhibitor, single point]

Q: For `Cc1ccc(NC(=O)N2CCN(c3nnc(C)c4c(C)n(-c5ccccc5)nc34)CC2)cc1Cl`, which Potency is on record?
A: inactive

Q: `Cc1ccc(S(=O)(=O)NC(CC(=O)NCc2ccco2)c2ccco2)cc1` (centres undefined) was tested. Which Potency did it give?
A: inconclusive [inhibitor, partial curve]

Q: For `COc1ccc(C(C)=O)cc1Cn1c(=O)cc(C)[nH]c1=O`, which Potency is on record?
A: active: 39.8 µM

Q: Which Potency does the source give for `CCCN1C(=O)c2ccccc2CC1(C)C(=O)NC1CCCCC1` (centres undefined) here?
A: inconclusive [inhibitor, single point]

Q: `C=CCNc1nnc(Sc2ncccc2[N+](=O)[O-])s1` was tested. Which Potency did it give?
A: inconclusive [inhibitor, partial curve]

Q: For `Cc1ccc(C2SCC(=O)N2Cc2cn3ccsc3n2)o1` (centres undefined), which Potency is on record?
A: inconclusive [inhibitor, partial curve]

Q: Which Potency does the source give for `C/C=C/C=C/C(=O)O` here?
A: inconclusive [inhibitor, partial curve]

Q: `CCOC(=O)c1ccc(NC(=O)CCS(=O)(=O)c2ccc3c(c2)oc(=O)n3C)cc1` was tested. Which Potency did it give?
A: inactive

Q: With `CCCC(=O)O[C@]1(C(=O)CCl)[C@@H](C)C[C@H]2[C@@H]3CCC4=CC(=O)C=C[C@]4(C)[C@@]3(F)C(=O)C[C@@]21C` as the compound, how does the Potency read?
A: inactive

Q: How did the Potency turn out when `COc1ccc(CN(C(=S)Nc2ccccc2)C2CC(=O)N(c3ccc(F)cc3)C2=O)cc1` (centres undefined) was run?
A: inactive

Q: How did the Potency turn out when `CC(=O)c1ccc(N2CCN(C(=S)Nc3ccc(Oc4ccccc4)cc3)CC2)cc1` was run?
A: inactive

Q: `COc1cccc(C(=O)N/N=C(\C)CC(=O)Nc2ccc(N(C)C)cc2)c1` was tested. Which Potency did it give?
A: inconclusive [inhibitor, partial curve]

Q: `CC(=O)C(Cc1ccc(Cl)nc1)(Cc1ccc(Cl)nc1)C(C)=O` was tested. Which Potency did it give?
A: inactive

Q: Which Potency does the source give for `O=C(CC1C(=O)NCCN1Cc1ccccc1C(F)(F)F)NCCc1ccccn1` (centres undefined) here?
A: inconclusive [inhibitor, full curve]

Q: Which Potency does the source give for `Cc1[nH]n(-c2ccccc2)c(=O)c1C(=O)Nc1ccccc1` here?
A: inactive

Q: For `CC(=O)NC(=C(Cl)Cl)S(=O)(=O)c1ccccc1`, which Potency is on record?
A: inconclusive [inhibitor, full curve]

— PubChem BioAssay AID485364 (National Center for Advancing Translational Sciences (NCATS), 2010)
